Whole data set: some 33,000 sequences, median “E-score (-0.5 to 0.5)” near -0.035, cut for the highest 2% near 0.34. The list shows a part of the results.
Biological target: T1, Mot3 (UniProt P54785)
T1 sequence: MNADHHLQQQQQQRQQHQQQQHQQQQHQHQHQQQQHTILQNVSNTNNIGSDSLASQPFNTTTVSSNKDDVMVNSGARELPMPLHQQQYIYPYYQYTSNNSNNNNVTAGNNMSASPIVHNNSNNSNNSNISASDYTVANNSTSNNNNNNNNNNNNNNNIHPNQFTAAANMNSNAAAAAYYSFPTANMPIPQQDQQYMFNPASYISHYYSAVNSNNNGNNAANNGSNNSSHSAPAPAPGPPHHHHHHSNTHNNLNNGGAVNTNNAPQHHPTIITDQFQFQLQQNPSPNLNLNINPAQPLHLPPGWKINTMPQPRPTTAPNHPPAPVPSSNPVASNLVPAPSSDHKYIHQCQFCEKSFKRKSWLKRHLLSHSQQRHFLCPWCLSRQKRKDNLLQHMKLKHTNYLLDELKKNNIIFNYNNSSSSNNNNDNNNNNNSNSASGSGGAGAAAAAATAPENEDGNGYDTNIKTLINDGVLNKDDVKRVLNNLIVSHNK
Assay: PBM E-score (8-mer binding enrichment) (E-score (-0.5 to 0.5)); higher = stronger / more preferred TF binding; most listed sequences are background and not binding sites
Conditions: protein concentration: 200 nM; construct: GST-full length
Outline: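 Bound GST-tagged yeast transcription factors, applied at about 100-200 nM to double-stranded universal all-10-mer Agilent arrays, were detected with fluorescent anti-GST. Scans were normalised with masliner. A modified Wilcoxon-Mann-Whitney statistic, the E-score, was assigned to each ungapped eight-base word pooled with its reverse complement by the Universal PBM Analysis Suite.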

Sequence | PBM E-score
AAGACTTA | 0.0882
AACCGAAA | 0.0854
AGTCTGCC | -0.276
AGACCTGC | -0.0529
CATACCGA | -0.00061
CCCCCAGC | -0.434
GGTCCCAA | -0.238
CGACTGGA | -0.37
ATCCACAC | -0.0909
TACTTCCA | 0.0637
CGTCGGTC | -0.11
AAGTGTCG | 0.0843
GATGATCA | -0.29
GCCATACA | -0.0474
ACTAATCG | -0.00748
CGCGCTAG | -0.0539
GAGCACGA | -0.122
ATAGGAGA | 0.0332
GGCCGTAA | -0.234
AGCTAGAT | -0.0173
TAGGTTCA | 0.123
CCCCTTGA | -0.113
GCAGACAC | -0.00428
ATCAAATG | 0.074
CCGGAATA | -0.125

Sequence | PBM E-score
GTTAAGCA | 0.0926
GTTAGCTA | -0.0892
CGGCATGC | -0.291
AGAATGCA | -0.0199
TGCCTACA | 0.487
ACTAGGGG | -0.223
AATGTAAA | 0.374
GTGGTTAA | 0.105
GCGGGGAC | -0.0447
CGTCGTGC | 0.118
AGGTATAA | 0.0672
CCTTGAGA | 0.0531
CTATGCGA | -0.042
CCAATCAA | -0.0159
AGGGTAAA | 0.0616
ACATAGTA | 0.27
AACTTAAT | 0.113
AACATATG | 0.27
GGCTAGCA | -0.146
CCCGTGCG | -0.0432
CATGACCA | 0.208
ATAATCAT | 0.162
ACCAGATC | -0.137
AGGGAACC | 0.00909
CGATCCTA | -0.126

Sequence | PBM E-score
GAGCTCGC | -0.207
GAGTGTAA | 0.249
ACAACGCG | 0.191
AAGGCGGC | -0.066
AGGGCAAT | -0.151
AAGGAAAA | 0.417
CCAGTATC | -0.235
ACTACGTC | -0.0369
GATCGTCC | -0.167
CTTGCCCC | -0.209
GAATGGGA | -0.216
ATATCTTC | -0.116
TTGTTAAA | 0.256
CATAATCC | -0.0632
AGAACAGG | 0.184
GCGCAGTA | -0.216
AAGCACCC | -0.152
CCGAATTA | -0.0877
CACGGTTC | 0.133
ATGACGCC | 0.0853
ACCTACCT | 0.14
ATCGAACG | -0.069
AAATATGA | 0.0681
CTGAGGAC | 0.0105
GGTGTCGA | 0.046

Sequence | PBM E-score
ACATCTGC | -0.0464
CTACTGCC | 0.013
GCCCTTGA | -0.0731
CGGAAGAA | -0.00032
CAACCTCA | -0.0585
AAAAACTG | -0.0347
CGGCAGGA | -0.0555
GAGGCTAA | -0.134
ACGCTAGT | -0.15
CGGTGGCC | -0.169
CCCGCAAC | 0.104
TAGATGAA | 0.153
CAAATTGA | -0.0406
AAGCTGCA | -0.0471
AAGCCTCT | -0.147
AAGGTGAG | -0.2
TACGAACA | 0.18
CAGAGCTC | -0.238
GCACCAAC | -0.128
GCGCGACA | -0.103
AGGCACAA | 0.489
AGAGATCT | -0.247
GAACCGTC | -0.12
ACGGGCTC | -0.347
GAGTTACC | 0.0914

Sequence | PBM E-score
ACGGTTCA | -0.235
AGACGCGG | -0.0745
GCCACTTA | -0.122
TACGACTA | -0.0995
ATCTATTG | 0.0393
GGGAATGA | -0.229
GAGGTGCC | 0.253
CAGCATAC | -0.0824
CCCCACTA | -0.278
AAGCTATT | -0.0669
ACGACGAG | -0.0188
CTGTTATA | 0.277
CAACTTAG | 0.098
AAACGGAG | 0.0165
GATTGTAA | 0.211
GACGGTCC | -0.305
ACAAGTTG | 0.086
GATGTTCA | 0.0345
CCTGCGTC | -0.0965
CAACGGGC | -0.00168
AACAAACA | 0.259
AAATTTAG | 0.043
GCCAACGA | -0.0889
CCGGAGCG | -0.146
AGCACGCA | -0.016

Sequence | PBM E-score
AAACCCCT | 0.0363
ATTAGAAC | 0.0827
ACATGAGA | 0.309
TCTGTTAA | 0.207
ATGGGCGC | -0.291
ACGGGTTG | -0.18
GGTAAGCA | -0.136
GCACACCC | -0.102
CCGAAGTC | -0.108
CTACGCCA | -0.0226
TCAGGGCA | 0.111
TGCATCCA | -0.0735
ACTACGCT | 0.0652
GCCGGCCC | -0.33
CAAGCTTA | -0.142
GACTGTCC | -0.143
GGGAAAAC | -0.195
TATGACAA | 0.077
CAATCAGG | 0.00489
CGGTTAGC | -0.145
ATTAAGTA | 0.0749
CGTTAATA | 0.195
GGGACAAC | -0.0492
ACCATTCG | -0.0746
CGTAAGTC | -0.0604

Sequence | PBM E-score
ATTGCAAA | 0.0186
CAATACGA | 0.0195
ACGGTCTG | -0.0141
GTGCCCAA | 0.392
GAGTATAC | 0.0757
CTTTAAAA | 0.118
AATCTGAG | -0.0256
GACTAAGC | -0.143
CAGCTACA | 0.133
GCCTTGCC | 0.416
AGGGCGTA | -0.0718
CGTGCCGA | -0.00421
ATCCTACG | -0.124
TACAAGTA | 0.221
GCACCGGC | -0.0095
TAAACATA | 0.284
CCGGTCGA | -0.303
AAACATAA | 0.308
ATAGGGAG | -0.165
ATAATCCA | -0.00343
ATCTACAT | 0.349
GGGTACGA | -0.148
ATATCCAG | -0.0458
CCCACTTC | -0.221
AATGGAGA | -0.155

Sequence | PBM E-score
AGGCAAAG | 0.472
ACTAGTCT | -0.0432
ATTTGTTG | 0.113
ATTCACGA | 0.0642
GCCGCCGA | -0.218
GACCCTGC | -0.119
AGGGATAA | 0.0972
CGGTAGGA | 0.0346
CCGGGAGC | -0.282
CGCTGTGC | -0.0145
CAACATCC | 0.0854
CGACAAGC | 0.04
GAAGTTAA | 0.184
CAAACCAC | -0.0198
ACATCAAT | 0.219
AGGCTGAG | -0.0976
CCAAAGTA | -0.0981
ACAACTGC | -0.0109
AAATACAT | 0.344
ATGATCTG | 0.0224
AGGGACCT | -0.103
ATTTGTGA | -0.11
AAATTGAT | 0.114
TCCTGCCA | 0.12
GAGCTAAA | -0.205

Sequence | PBM E-score
CCTGATCG | -0.249
ACGGGTCA | -0.13
ACCTCCAA | 0.0441
ATGGAAAA | -0.0018
ACATCAAC | 0.163
AAACCCAG | 0.0423
CCACCAAG | -0.269
GACCAAGC | -0.251
AATAACAC | 0.31
ATAGCCAG | -0.221
GAAAAGGA | 0.164
AACATCCA | 0.089
ATCAATGC | -0.189
GGACAAAC | 0.0402
ACATCAGC | 0.0369
CGGACCCC | -0.0309
GACTAGAA | 0.0191
ATCGGCGG | -0.342
CTTGGGTA | 0.037

Reference: the supplement of paper PMC3334620
